This note sets out measurements from the supplement of paper PMC10369915.

This is one part of the list. Rule as the data show it: active = 3.2 or more and inactive = the rest. Most of these values are background signal.

B1: MAPK13_Y182_V184M (peptide)
chain: AEMTGYVMTRW
B2: MAP2_Y996 (peptide)
chain: GLGVTYEQALA
B3: LTK_Y677_R673Q (peptide)
chain: YQASYYRRGDR
B4: MAPRE2_Y158_Y162C (peptide)
chain: WFKKFYDANCD
B5: LUZP1_Y1036 (peptide)
chain: CTLSVYRQLHN
B6: LRRK2_Y2023_YF (peptide)
chain: FGIAQYCCRMG
B7: MACC1_Y803 (peptide)
chain: HYGNNYRDVLQ
B8: LRP5_Y1528_R1529S (peptide)
chain: ATARPYSPYII
B9: LRRK2_Y1402_R1398H (peptide)
chain: GHEEFYSTHPH
B10: MAP9_Y603_N601D (peptide)
chain: QAIDEYEKWLE
B11: MAK16_Y282_Q277R (peptide)
chain: RRKRAYVEIEY
B12: MAML2_Y513_M514V_YF (peptide)
chain: KVMANYVFKAG
B13: LZTR1_Y119_H121D (peptide)
chain: PPAPRYHDSAV
B14: LRRK2_Y1718_R1723P (peptide)
chain: LEISPYMLSGP
B15: LZTR1_Y119_Y119C (peptide)
chain: PPAPRCHHSAV
B16: MAN1B1_Y60 (peptide)
chain: SFGENYDNSKS
B17: LTK_Y672_R673Q_YF (peptide)
chain: MARDIYQASFF
B18: LY75_Y888_D884A_YF (peptide)
chain: DAHFTYSRFPW
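Also: displayed peptides selected on beads carrying the immobilized SH2 domain, with library peptides lacking any tyrosine serving as negative controls.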

The first test deals with SHP2 C-SH2 domain E139D. As to the kind of experiment: enrichment score (SH2-bound / input frequency) (ratio); bacterial display of known human phosphotyrosine sites (pTyr-Var adds point mutants) read by sequencing; higher = stronger binding; tyrosines were phosphorylated by kinases first. The settings on record: peptide library: pTyr-Var.
As for B1, the enrichment score was inactive: 0.551.

With B2, the enrichment score was inactive: 0.711.

Consider B3, for which the enrichment score is inactive: 0.177.

On to B4, for which the enrichment score was inactive: 0.643.

With B5, the enrichment score was inactive: 0.795.

As to B6, the enrichment score was inactive: 1.66.

As to B7, the enrichment score was inactive: 0.668.

Turning to B8, the enrichment score was inactive: 0.943.

B9: the enrichment score is inactive: 0.806.

Regarding B10, the enrichment score is inactive: 0.97.

On to B11, for which the enrichment score was inactive: 0.235.

Consider B12, for which the enrichment score is inactive: 1.25.

For B13, the enrichment score is inactive: 0.437.

With B14, the enrichment score is inactive: 0.948.

Regarding B15, the enrichment score is inactive: 2.46.

Take B16: the enrichment score was inactive: 0.618.

Consider B17, for which the enrichment score is inactive: 0.954.

In the case of B18, the enrichment score is inactive: 0.997.

The next test concerns the target SHP2 C-SH2 domain wild-type. The description is as above. The following applies: peptide library: pTyr-Var.
On to B1, for which the enrichment score was inactive: 0.537.

For B2, the enrichment score was inactive: 0.459.

Consider B3, for which the enrichment score is inactive: 0.222.

B4: the enrichment score is inactive: 0.599.

Turning to B5, the enrichment score is inactive: 0.895.

For the molecule B6, the enrichment score is inactive: 1.41.

Turning to B7, the enrichment score is inactive: 0.83.

On to B8, for which the enrichment score is inactive: 0.825.

Take B9: the enrichment score was inactive: 0.693.

Turning to B10, the enrichment score is inactive: 0.565.

For B11, the enrichment score was inactive: 0.202.

On to B12, for which the enrichment score was inactive: 1.15.

For the molecule B13, the enrichment score was inactive: 0.44.

With B14, the enrichment score is inactive: 0.747.

For the molecule B15, the enrichment score is inactive: 2.48.

Take B16: the enrichment score is inactive: 0.377.

As for B17, the enrichment score is inactive: 0.846.

For the molecule B18, the enrichment score was inactive: 0.734.

The next test deals with SHP2 N-SH2 domain L43F. Described as above. The following applies: peptide library: pTyr-Var.
For B1, the enrichment score was inactive: 0.381.

With B2, the enrichment score is inactive: 0.681.

For B3, the enrichment score is inactive: 0.209.

Turning to B4, the enrichment score is inactive: 0.531.

For the molecule B5, the enrichment score is inactive: 0.8.

B6: the enrichment score was inactive: 1.53.

B7: the enrichment score was inactive: 0.542.

Take B8: the enrichment score was inactive: 0.651.

In the case of B9, the enrichment score is inactive: 0.745.

Turning to B10, the enrichment score is inactive: 0.642.

With B11, the enrichment score was inactive: 0.0566.

With B12, the enrichment score was inactive: 0.958.

For B13, the enrichment score was inactive: 0.673.

For the molecule B14, the enrichment score was inactive: 1.87.

With B15, the enrichment score is inactive: 2.24.

As to B16, the enrichment score is inactive: 0.587.

B17: the enrichment score is inactive: 0.997.

Consider B18, for which the enrichment score was inactive: 0.866.

For the next test, the target named is SHP2 N-SH2 domain T42A. The description is as above. The settings on record: peptide library: pTyr-Var.
For the molecule B1, the enrichment score was inactive: 0.421.

For the molecule B2, the enrichment score was inactive: 1.31.

Consider B3, for which the enrichment score is inactive: 0.222.

Turning to B4, the enrichment score was inactive: 0.602.

B5: the enrichment score was inactive: 0.746.

Turning to B6, the enrichment score was inactive: 1.38.

As for B7, the enrichment score is inactive: 0.618.

B8: the enrichment score was inactive: 0.597.

B9: the enrichment score was inactive: 0.654.

For B10, the enrichment score is inactive: 0.74.

For B11, the enrichment score was inactive: 0.229.

Turning to B12, the enrichment score was inactive: 1.

As for B13, the enrichment score was inactive: 0.512.

B14: the enrichment score was inactive: 0.817.

On to B15, for which the enrichment score is inactive: 2.32.

With B16, the enrichment score was inactive: 0.375.

B17: the enrichment score was inactive: 0.931.

B18: the enrichment score was inactive: 0.85.

The target of another test is SHP2 N-SH2 domain T52S. Described as above. The settings on record: peptide library: pTyr-Var.
In the case of B1, the enrichment score is inactive: 0.384.

On to B2, for which the enrichment score was inactive: 0.638.

As for B3, the enrichment score was inactive: 0.234.

For the molecule B4, the enrichment score was inactive: 0.62.

Turning to B5, the enrichment score was inactive: 0.752.

B6: the enrichment score was inactive: 1.64.

Consider B7, for which the enrichment score was inactive: 0.872.

Consider B8, for which the enrichment score was inactive: 1.03.

For B9, the enrichment score was inactive: 0.99.

On to B10, for which the enrichment score was inactive: 0.746.

In the case of B11, the enrichment score is inactive: 0.265.

For the molecule B12, the enrichment score is inactive: 1.11.

In the case of B13, the enrichment score is inactive: 0.486.

For the molecule B14, the enrichment score was inactive: 1.81.

As for B15, the enrichment score was inactive: 2.4.

Turning to B16, the enrichment score was inactive: 0.499.

Consider B17, for which the enrichment score was inactive: 0.988.

Take B18: the enrichment score is inactive: 0.812.

For a further test, the target named is SHP2 N-SH2 domain wild-type. The test is described as above. The following applies: peptide library: pTyr-Var.
Turning to B1, the enrichment score is inactive: 0.681.

As to B2, the enrichment score was inactive: 0.526.

As for B3, the enrichment score was inactive: 0.283.

Take B4: the enrichment score was inactive: 0.849.

On to B5, for which the enrichment score was inactive: 1.07.

For the molecule B6, the enrichment score was inactive: 1.68.

In the case of B7, the enrichment score was inactive: 0.551.

Consider B8, for which the enrichment score is inactive: 0.735.

As for B9, the enrichment score is inactive: 0.81.

Turning to B10, the enrichment score is inactive: 0.952.

Turning to B11, the enrichment score was inactive: 0.165.

B12: the enrichment score was inactive: 1.15.

As to B13, the enrichment score is inactive: 0.652.

Take B14: the enrichment score was inactive: 1.3.

With B15, the enrichment score was inactive: 2.84.

For the molecule B16, the enrichment score is inactive: 0.522.

For the molecule B17, the enrichment score is inactive: 0.998.

B18: the enrichment score is inactive: 1.08.
